Test results as given in the supplement of paper PMC11417369.
± gives the standard deviation of the averaged measurements. The list shows a part of the results.

tested on: PfAP2-EXP AP2 domain (GST-tagged); assay: gcPBM binding intensity (ln(normalized median fluorescence intensity)); higher = stronger DNA binding
Summary of the method: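 The highest Masliner-normalised natural-log median intensity across replicate spots of either probe orientation is reported as binding intensity. GST-tagged P. falciparum DNA-binding domains expressed in E. coli were applied for 1 h to an Agilent 4 × 180k array of primer-extended double-stranded 36-bp intergenic genomic probes plus negative controls, and bound protein was detected with Alexa488 anti-GST antibody and scanned at 488 nm.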

Row | Sequence | gcPBM binding intensity (ln)
1 | ACCTTAAAAATAACTGCACACAAAAATAAATACCTT [CACACA_site8902] | 9.63 ± 0.54
2 | ACGTAAACATGTAGAAGGCATTACACAATGGTATAC [TGCATGCA_negctrl_site512] | 8.97 ± 0.35
3 | AATTGAGAAGTGTGTTGTACATAATGGCACATACCT [XGTACX_site1370] | 8.73 ± 0.32
4 | TTATTTTTTTGGAATTCACACACAAAAAAAAAAATA [CACACA_site8650] | 8.55 ± 0.42
5 | TATATATATATGTGTACACATGTCGCATTTTTTTAT [CACACA_site4648] | 10 ± 0.26
6 | GATATTATAAAATAAAAATAAATCATTTCTATTCAT [CACACA_negctrl_site334] | 7.99 ± 0.35
7 | TTATGTGTATAGGTTTGTACATAAAATGATGTATAG [XGTACX_site1401] | 8.46 ± 0.38
8 | TAGTCATATATATATGTACACACATATATATATTTA [CACACA_site8413] | 8.39 ± 0.35
9 | TCATGGAATATTTAAAGTACAAAAAGTGTTCTTTAC [XGTACX_site715] | 8.21 ± 0.3
10 | ATATATTATGGGTGTGCACACAATATTTATATGTTC [CACACA_site2270] | 8.93 ± 0.4
11 | TTATAATAAATATATAAAAAAAAAAAAAAAAAAAAA [CACACA_negctrl_site1639] | 7.97 ± 0.23
12 | TGATAGCACCTTATATGTACATATAATATATTATTA [XGTACX_site837] | 8.89 ± 0.23
13 | TTTTCTTATAAATGAAGTACAAAAAAAAAATATATA [XGTACX_site1352] | 8.63 ± 0.46
14 | ACATATATGGAGCTTATACACACTTTTATATTTTAA [CACACA_site3854] | 8.42 ± 0.41
15 | TTATCATATAATTATTGTACTAAAAAAAAAGCGAGT [XGTACX_site3086] | 8.91 ± 0.4
16 | TTTTAAATATGCCATACACACTACTCTATAATAAAT [CACACA_site6987] | 8.46 ± 0.46
17 | TAAAATTTGCGATGCACACAGAATAGCTAATATGAC [CACACA_site2995] | 8.9 ± 0.38
18 | TATTTTCTCGTTTGCATGCACCTTATTTTATGTGGT [GTGCAC_site9470] | 10 ± 0.11
19 | ATATTATATATATACACACACACATGCATGCACATA [CACACA_site7917] | 9.94 ± 0.16
20 | TACTAAAACCCATACACACACATATTTATAGTACCA [CACACA_site7484] | 8.49 ± 0.41
21 | AAATTCTGCATCGAGGTGCGCCATAAAAATTGTGGT | 8.765 ± 0.035
22 | AGTTATTTTAAATGTAGTACACAAAAGAAATATTAA [XGTACX_site4092] | 8.68 ± 0.22

Row | Sequence | gcPBM binding intensity (ln)
23 | CATAAATTAAAACACACACACACAAAAAAAAAAAAA [CACACA_site2262] | 8.32 ± 0.62
24 | TTTAAAAATATATATTGTACATATATATATCTATGA [XGTACX_site3556] | 8.32 ± 0.4
25 | ATAAAAATTAAAAGGAGTACTTAAATATTAAGATGG [XGTACX_site4815] | 8.67 ± 0.27
26 | TTTATTTAAAAAATAAAAAAAAAAAAAAAAAAAAAA [CACACA_negctrl_site1670] | 7.82 ± 0.38
27 | TACTATTTAAAATTTGAACACACATTATTTATTTTA [CACACA_site9020] | 8.27 ± 0.31
28 | TATACAATATATATAACACACATATTTATATAAAAT [CACACA_site5061] | 8.29 ± 0.38
29 | CAGTTGGAAGGAAAGTGTACATAAAAAAAAATATAA [XGTACX_site8784] | 8.95 ± 0.44
30 | AAAATACCATTTGAAACACACAAAAAAAAAAAAAAT [CACACA_site2981] | 8.36 ± 0.66
31 | AACATAAAAATTGAAGCACACACACTAATGAAATAC [CACACA_site8287] | 9.1 ± 0.35
32 | ACAAATCTATAAGAGTGTACGAACAGTAAAGGAATT [XGTACX_site2070] | 9.12 ± 0.51
33 | ATGTGAACATTCAATGCACACGATGTAATTATACAT [CACACA_site15] | 8.6 ± 0.27
34 | ATAAAAATCTTTAGTAGTACATTATAAAAAACTATT [XGTACX_site5531] | 8.45 ± 0.42
35 | TTTTTAATATATATCACACATATATATTTTTAATTA [CACACA_site6099] | 8.28 ± 0.31
36 | CTAATCGTGCACAACTGTACATTTGTCAAGGGCAAT [XGTACX_site8662] | 9.17 ± 0.23
37 | CGGCTATTTCTATATACATGCATTTAAAAAAAAAAT [TGCATGCA_site354] | 8.56 ± 0.44
38 | TATATATCTGTGAAAATACTTAAATTGTTATAAAAA [CACACA_negctrl_site1109] | 8.11 ± 0.34
39 | ACCTATTTCAAACACACACACACACTAACAAACATA [CACACA_site8233] | 8.74 ± 0.4
40 | AAAAAAAAAATGAGCACACATAAATAAAAACAAACA [CACACA_site1573] | 8.8 ± 0.5
41 | AAAACATCAAAAATGTGTACATATATATATATATAT [XGTACX_site8884] | 10.3 ± 0.21
42 | ATATATATATATGCATGTACATATTTATCTTTATAT [XGTACX_site232] | 10 ± 0.28
43 | AACATATATTAGCTTACATGCAAAAAGTAAAAAAAT [TGCATGCA_site10] | 9.29 ± 0.16
44 | AATTTAAAACGGAGATGTACATATATAAATATATAC [XGTACX_site3723] | 8.63 ± 0.4

Row | Sequence | gcPBM binding intensity (ln)
45 | AATATTTTAAATATTGCATGCAATGAAAAATGTAAA [TGCATGCA_site139] | 10.2 ± 0.31
46 | TTTTAAAATTTTTTTTTTTTTTTTTTATGAACAAGT [GTGCAC_negctrl_site124] | 7.91 ± 0.41
47 | TTTTAAAGAAAATATTTTATCATTATTTTTTGTACT [CACACA_negctrl_site1648] | 8.32 ± 0.37
48 | TCTTATTTTTTTATATATACAAAGTTTTATATATAT [GTGCAC_negctrl_site314] | 8.69 ± 0.35
49 | ATAGTAAATATAAAAAGTACTGATTCTTAAATTGTT [XGTACX_site5972] | 8.6 ± 0.46
50 | GTTCAATCGGGTGTTACTTCAAACAAGGAACAACAA [TGCATGCA_negctrl_site471] | 8.61 ± 0.5
51 | ACTTGACACCAACACACACACATATATAAAAAAAAA [CACACA_site756] | 8.55 ± 0.33
52 | TATTTTATTGTTGTTATACACACCATATAAAATATT [CACACA_site1630] | 8.57 ± 0.41
53 | AAAAAAAAAAAAAAAGTGCACTGAAAATATATTGAA [GTGCAC_site9395] | 9.04 ± 0.2
54 | TTTTTAATTATTTATATAACGATAATCCTTACATAA [TGCATGCA_negctrl_site180] | 8.14 ± 0.41
55 | AACAAAAATGAAAAAACACACATAACATATATAAAT [CACACA_site740] | 8.79 ± 0.5
56 | ATAATATAAATAAAAACACACACAATCGTACATATA [CACACA_site9223] | 8.87 ± 0.46
57 | TATATAGAAAACAAGGCATGCAAATAACAAATTGTG [TGCATGCA_site473] | 9.85 ± 0.36
58 | ATATATTGATATATGTGTACATAGCTTATTTCATTT [XGTACX_site1800] | 8.59 ± 0.25
59 | ATATAATATATGTAAGTGCGCTTATAAATAAAACGA [GTGCAC_site9841] | 8.73 ± 0.4
60 | AATAGAACAAATAAAACACACACATATATATATATA [CACACA_site8893] | 10.1 ± 0.34
61 | AAAAAAAAAAAAAAGACACACAATGTGAAATAATAA [CACACA_site804] | 8.4 ± 0.56
62 | AATATATTTCGAGATACACACATATATAAAAAAAAA [CACACA_site3398] | 8.52 ± 0.48
63 | ATATATCACAATAAAATTTATAGAATTTTAAATAAG [TGCATGCA_negctrl_site437] | 8.41 ± 0.16
64 | CAATAAAGAGGGAATTGTACTTTAAATATCCCTCTT [XGTACX_site1991] | 8.37 ± 0.38
65 | AAAATAAAATAAAATACACACATACATACATACAAA [CACACA_site5366] | 8.72 ± 0.57
66 | TTATATATTTTTACCATACACACATATAATAAATAT [CACACA_site3721] | 8.56 ± 0.35

Row | Sequence | gcPBM binding intensity (ln)
67 | ATCATAAAAGTATACACACATACATACATATGTACA [CACACA_site2641] | 8.65 ± 0.38
68 | ATAAAGATTTTCCAAGCATGCCACATAGTGAGATAC [TGCATGCA_site594] | 9.14 ± 0.4
69 | TATATATATATTATATGTACATATTCCTATATATAC [XGTACX_site7071] | 9.51 ± 0.17
70 | TAAATATATATATATGTACACACTCCAATACATATA [CACACA_site8858] | 8.52 ± 0.36
71 | ACTTTATATTTTGAACGTACAAAAAAAAAATTATGT [XGTACX_site5588] | 8.61 ± 0.45
72 | AACCATTAATTCTCTACACACTTTTATTTTATTTAG [CACACA_site1769] | 8.72 ± 0.45
73 | GCACATATATACATACATACATACATACATATGTAT [TGCATGCA_negctrl_site95] | 8.77 ± 0.53
74 | TTGGTTATACAACACATGCACACGTAAATAAATATT [CACACA_site3841] | 8.96 ± 0.33
75 | AAGTATGCATTATATACACACATACATTTATATATT [CACACA_site4242] | 8.54 ± 0.33
76 | TATATATAAAGAGAAACATGCAAAATGTGAATATTC [TGCATGCA_site377] | 9.2 ± 0.4
77 | ATTATGTTAAAAAGGCGTACATGTTATAAGGTCCTA [XGTACX_site344] | 8.73 ± 0.41
78 | TCCTTATAAATATATATATAATATATATATATATAT [CACACA_negctrl_site293] | 9.54 ± 0.29
79 | TATATATATATTTATACACACATTAGTGTAGACATG [CACACA_site8964] | 9.45 ± 0.22
80 | TTGTTCTAATATATTGCACACGTAAAAATATAGGTA [CACACA_site8195] | 8.8 ± 0.13
81 | ATATAATATATATGGTGTACATTTTTTAGTGCTATT [XGTACX_site1662] | 8.62 ± 0.29
82 | AAAAAGTGACTCCTTACACACTTTACATAATTTAGT [CACACA_site4606] | 8.44 ± 0.38
83 | TAAAAGAATAAAAGTAGTACTTTTTTTTATATTAGA [XGTACX_site368] | 8.125 ± 0.007
84 | ATATTTTTATATTAGTGTACTTATTATAATGTATAG [XGTACX_site8185] | 8.45 ± 0.26
85 | TCTTTTTTTTTTTATTGTACAAGAAAAGGAAAAAAT [XGTACX_site3717] | 8.59 ± 0.12
86 | ATAATATGTAATATTACACACAATTCATCATTTTTT [CACACA_site3159] | 8.34 ± 0.4
87 | ATATACACCGTTGAATGTACATAAATAATATTAATA [XGTACX_site2893] | 8.92 ± 0.28
88 | AAGTATTATTTTTATGCATGTGAAGTGCAAAATAAA [TGCATGCA_site198] | 8.605 ± 0.049
